Measured values taken from the RNAGym collection of RNA variant scans (doi:10.1093/nar/gkz1192).
The source gives no read counts; variants with many changes may rest on few reads.

B1: CPEB3 Ribozyme (parent)
chain: UAACAGGGGGCCACAGCAGAAGCGUUCACGUCGCAGCCCCUGUCAGAUUCUGGUGAAUCUGCGAAUUCUGCUGUAUAUCUC

Variants of: B1
Test: self-cleavage, relative activity (ratio to wild type); higher = more cleavage; in vitro, sequencing
Method in brief: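 For each CPEB3 ribozyme variant, relative activity is its cleaved/total read fraction divided by the unmutated ribozyme's. Barcoded error-prone PCR libraries were transcribed by T7 RNA polymerase (5 hours, 37°C) and held in DNase I for 15 min before an EDTA stop, with cleavage occurring throughout. Template-switching reverse transcription and Illumina sequencing were used to read the RNAs. A 5-read minimum applied, and results are the mean of three batches.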

| Variant | self-cleavage |
| --- | --- |
| UAACAGGGGGCCACAGCAGAAGCGUUCACGUCGCAGCCCCUGCCAAAUUCUGGUGUAUCUGCGAAUUCUGCUGUAUAACUC [U43C G46A A56U U78A] | 0.07 |
| UAACAGGGGGCCACAGCAGAAGCGUUCACGUCGCAGCCCCUGCCAAAUACUGGUGUAUCUGCGAAUUCUGCCGUAUAUCUC [U43C G46A U49A A56U U72C] | 0.06 |
| UAACAGGGGGCCACAGCAGAAGCGUUCACGUCGCAGCCCCUGCCAGAUUCUGAUGAAUCUGCGAAUUCUGCUGAGUAUCUC [U43C G53A U74A A75G] | 1.01 |
| UAACAGGGGGCCACAGCAGAAGCGUUCACGUCGCAGCCCCUGCCAGAUUCUGGUAAAUCUGCGACUUCUGCUGUAUAUCUC [U43C G55A A65C] | 0.51 |
| UAACAGGGGGCCACAGCAGAAGCGUUCACGUCGCAGCCCCUGCCAGAUUCUGGUGAAUCUGCCAAUUCUGCUGCAUAUCUC [U43C G63C U74C] | 1 |
| UAACAGGGGGCCACAGCAGAAGCGUUCACGUCGCAGCCCCUGCCAGAUUCUGGUGAAUCUGCUGAUCCUGCUGUAUAACUC [U43C G63U A64G U67C U78A] | 0 |
| UAACAGGGGGCCACAGCAGAAGCGUUCACGUCGCAGCCCCUGCCAGAAUCUGGUGGAUCUGCGAAUUCUGCUGUAUAUCUC [U43C U48A A56G] | 0.18 |
| UAACAGGGGGCCACAGCAGAAGCGUUCACGUCGCAGCCCCUGCCAGACUCUGGUGAAUCUGCGUAUACUGCUGUAUGUCCC [U43C U48C A64U U67A A77G U80C] | 0.17 |
| UAACAGGGGGCCACAGCAGAAGCGUUCACGUCGCAGCCCCUGCCAGACUCUGGUGAAUCUGAGAAUUCUGCUGUAUAUCUA [U43C U48C C62A C81A] | 0.25 |
| UAACAGGGGGCCACAGCAGAAGCGUUCACGUCGCAGCCCCUGCCAGACUCUGGUGAAUCUGCGAAUUCUGCUGUAUAUCUA [U43C U48C C81A] | 0.12 |
| UAACAGGGGGCCACAGCAGAAGCGUUCACGUCGCAGCCCCUGCCAGACUCUGGUGAAUCUGCGAAUUCUGCUGUAUAUCUU [U43C U48C C81U] | 0.34 |
| UAACAGGGGGCCACAGCAGAAGCGUUCACGUCGCAGCCCCUGCCAGACACUGGUGAAUCUGCGAAUUCUGCUGUAUAUCUC [U43C U48C U49A] | 0.37 |
| UAACAGGGGGCCACAGCAGAAGCGUUCACGUCGCAGCCCCUGCCAGACUCCGGUGAAUCUGCGAAUUCCGCUGUAUACCUC [U43C U48C U51C U69C U78C] | 0.21 |
| UAACAGGGGGCCACAGCAGAAGCGUUCACGUCGCAGCCCCUGCCAGACUCUGGAGAAUCUGCGGAUUCUGCUGUAUAUCUC [U43C U48C U54A A64G] | 0.08 |
| UAACAGGGGGCCACAGCAGAAGCGUUCACGUCGCAGCCCCUGCCAGACUCUGGAGAAUCAGCGAAUUCUGCUGUAUAUCUC [U43C U48C U54A U60A] | 0.19 |
| UAACAGGGGGCCACAGCAGAAGCGUUCACGUCGCAGCCCCUGCCAGACUCUGGUGAAACUGCGAAUUCUGCUGUAUAUCUC [U43C U48C U58A] | 0.09 |
| UAACAGGGGGCCACAGCAGAAGCGUUCACGUCGCAGCCCCUGCCAGACUCUGGUGAAUCUGCGAACUCUGCUGUAUAUCUC [U43C U48C U66C] | 0.16 |

| Variant | self-cleavage |
| --- | --- |
| UAACAGGGGGCCACAGCAGAAGCGUUCACGUCGCAGCCCCUGCCAGACUCUGGUGAAUCUGCGAAUGCUGCUGUAUACCUC [U43C U48C U67G U78C] | 0.12 |
| UAACAGGGGGCCACAGCAGAAGCGUUCACGUCGCAGCCCCUGCCAGACUCUGGUGAAUCUGCGAAUUCAGCUGUAUAUCUC [U43C U48C U69A] | 0.12 |
| UAACAGGGGGCCACAGCAGAAGCGUUCACGUCGCAGCCCCUGCCAGACUCUGGUGAAUCUGCGAAUUCUGCCGUAUAUCUC [U43C U48C U72C] | 0.29 |
| UAACAGGGGGCCACAGCAGAAGCGUUCACGUCGCAGCCCCUGCCAGACUCUGGUGAAUCUGCGAAUUCUGCUGUAUAACUC [U43C U48C U78A] | 0.17 |
| UAACAGGGGGCCACAGCAGAAGCGUUCACGUCGCAGCCCCUGCCAGAUACUGGUGGAUCUGCGAAUUCUGCUGUAUAUCUC [U43C U49A A56G] | 0.24 |
| UAACAGGGGGCCACAGCAGAAGCGUUCACGUCGCAGCCCCUGCCAGAUACUGGUGAAUCUGCGAAUUCUGAUGUAUAUCUC [U43C U49A C71A] | 0.06 |
| UAACAGGGGGCCACAGCAGAAGCGUUCACGUCGCAGCCCCUGCCAGAUACUGGUGAACCUGCGAAUUCUGCUGUAUAUCUC [U43C U49A U58C] | 0.15 |
| UAACAGGGGGCCACAGCAGAAGCGUUCACGUCGCAGCCCCUGCCAGAUACUGGUGAAUCUGCGAAUUCUGCCGUAUAUCAC [U43C U49A U72C U80A] | 0.11 |
| UAACAGGGGGCCACAGCAGAAGCGUUCACGUCGCAGCCCCUGCCAGAUACUGGUGAAUCUGCGAAUUCUGCUGUACAUCUC [U43C U49A U76C] | 0.21 |
| UAACAGGGGGCCACAGCAGAAGCGUUCACGUCGCAGCCCCUGCCAGAUACUGGUGAAUCUGCGAAUUCUGCUGUAUACCUC [U43C U49A U78C] | 0.14 |
| UAACAGGGGGCCACAGCAGAAGCGUUCACGUCGCAGCCCCUGCCAGAUCCUGGUGCAUCUGCGAAUUCUGCUGUAUAUCUC [U43C U49C A56C] | 0.14 |
| UAACAGGGGGCCACAGCAGAAGCGUUCACGUCGCAGCCCCUGCCAGAUCCUGGUGGAUCUGCGAAUUCUGCUGUAUAUCUC [U43C U49C A56G] | 0.44 |
| UAACAGGGGGCCACAGCAGAAGCGUUCACGUCGCAGCCCCUGCCAGAUCCUGGUGGAUCUGCAGAUUCUGCUGUACAUCCC [U43C U49C A56G G63A A64G U76C U80C] | 0.27 |
| UAACAGGGGGCCACAGCAGAAGCGUUCACGUCGCAGCCCCUGCCAGAUCCUGGUGAAUCUGCGAGUUCUGCUGUAUAUCUC [U43C U49C A65G] | 0.18 |
| UAACAGGGGGCCACAGCAGAAGCGUUCACGUCGCAGCCCCUGCCAGAUCCUCGUGAAUCUGCGAAUUCUGCUGUAUAUCUC [U43C U49C G52C] | 0.31 |
| UAACAGGGGGCCACAGCAGAAGCGUUCACGUCGCAGCCCCUGCCAGAUCCUGAUGAAUCUGCGAAUUCUGCUGUAUAUCUC [U43C U49C G53A] | 0.24 |
| UAACAGGGGGCCACAGCAGAAGCGUUCACGUCGCAGCCCCUGCCAGAUCCUGGUGAAUCAGCGAAUUCUGCUGUAUAUCUC [U43C U49C U60A] | 0 |
